Article PMC6602471
Some of the results follow. At the low end of the ranking, values are background and their order means little.

These sequences were tested against T1, ETS1 (UniProt P14921) (assay: custom PBM). Settings: custom protein-binding microarray; buffer, salt, pH and temperature not stated; high values mean tight binding; double strand, one strand shown.
T1 sequence: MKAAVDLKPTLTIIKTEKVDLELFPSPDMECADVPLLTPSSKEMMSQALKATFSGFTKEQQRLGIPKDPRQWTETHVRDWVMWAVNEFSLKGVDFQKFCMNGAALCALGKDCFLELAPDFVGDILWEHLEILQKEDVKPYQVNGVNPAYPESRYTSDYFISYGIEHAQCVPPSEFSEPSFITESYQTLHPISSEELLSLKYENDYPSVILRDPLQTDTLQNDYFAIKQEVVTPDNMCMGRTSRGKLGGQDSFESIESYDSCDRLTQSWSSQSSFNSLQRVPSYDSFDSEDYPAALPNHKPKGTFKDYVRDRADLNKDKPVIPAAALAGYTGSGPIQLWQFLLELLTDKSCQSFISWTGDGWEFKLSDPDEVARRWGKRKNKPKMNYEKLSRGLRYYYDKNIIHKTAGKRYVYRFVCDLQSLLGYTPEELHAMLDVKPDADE
Sequence “TCCGGCTACCAGCTCCACCCACTTCAGGCCATGTAGGTCTTGATTCGCTTGACGCTGCTG” has a binding signal (log fluorescence intensity) of 8.03.
In the case of “GATTAATTTCTGCCCTTATTCGCACGTGCCATAACAGTCTTGATTCGCTTGACGCTGCTG”, the binding signal (log fluorescence intensity) is reported as 8.22.
In the case of “CGGAAGTGTCGTAAACGTCGGATATGCGGTTCTTCTGTCTTGATTCGCTTGACGCTGCTG”, the binding signal (log fluorescence intensity) is reported as 8.38.
Work on “CTGGGACTTGACCCAACTCTGCCGCGTGGGTCGTTTGTCTTGATTCGCTTGACGCTGCTG” yielded a binding signal (log fluorescence intensity) of 8.26.
With “TACTGACTTATATATGCGAATGCACATGAATAGGCCGTCTTGATTCGCTTGACGCTGCTG” the binding signal (log fluorescence intensity) was 8.29.
Sequence “TCCGTCTACCAGCTCCACCCACTTCAGGCCTTGTAGGTCTTGATTCGCTTGACGCTGCTG” has a binding signal (log fluorescence intensity) of 8.24.
“GATTGATTTCTGCCCTTATTCGCACGTGCCATAACAGTCTTGATTCGCTTGACGCTGCTG” gave a binding signal (log fluorescence intensity) of 8.24.
Work on “CGGAAGTGTCGTAAACGTCGGACATCCGGTTCTTCTGTCTTGATTCGCTTGACGCTGCTG” yielded a binding signal (log fluorescence intensity) of 12.6.
“TACTGACTTATATATGCGAATGCACATGAATAGATCGTCTTGATTCGCTTGACGCTGCTG” was tested, and the binding signal (log fluorescence intensity) was 8.17.
Work on “CACAATTTTTACAGTAATGCAGCACGCGTAACTCCTGTCTTGATTCGCTTGACGCTGCTG” yielded a binding signal (log fluorescence intensity) of 8.2.
“CACAATTTTTCCAGTAATGTAGCACGCGTAACTCCTGTCTTGATTCGCTTGACGCTGCTG” gave a binding signal (log fluorescence intensity) of 8.25.
“TCCGGCTACCAGCTCCACCCACTTCAGGCCTTCTAGGTCTTGATTCGCTTGACGCTGCTG” gave a binding signal (log fluorescence intensity) of 8.09.
“CACCATTTTTACAGTAATGTAGCACGCGTAACTCCTGTCTTGATTCGCTTGACGCTGCTG” gave a binding signal (log fluorescence intensity) of 8.16.
For “CGGTAGTGTCGTAAACGTCGGATATCCGGTTCTTCTGTCTTGATTCGCTTGACGCTGCTG”, the binding signal (log fluorescence intensity) was 11.8.
“GTGTATAGGATCCCATCCAACACGCGTGTTAAAATGGTCTTGATTCGCTTGACGCTGCTG” gave a binding signal (log fluorescence intensity) of 8.17.
For “GCTGCTGCGGCGCATACCCCACCGGATGTGACCCCGGTCTTGATTCGCTTGACGCTGCTG”, the binding signal (log fluorescence intensity) was 10.
Sequence “TGTCGGGTAAGGGAATGTAGATGACGTGAATGAAAAGTCTTGATTCGCTTGACGCTGCTG” has a binding signal (log fluorescence intensity) of 8.36.
For “GGAAAAAGGCCCAGGGTAACACCGGAAGTGGCCTTAGTCTTGATTCGCTTGACGCTGCTG”, the binding signal (log fluorescence intensity) was 12.1.
Work on “CTGGGACTTGACCCAGCTCTGCCACGTGGGTCGTTTGTCTTGATTCGCTTGACGCTGCTG” yielded a binding signal (log fluorescence intensity) of 8.24.
Sequence “CGGAAGTGACGTAAACGTCGGATATCCGGTTCTTCTGTCTTGATTCGCTTGACGCTGCTG” has a binding signal (log fluorescence intensity) of 11.8.
For “CGGAAGTGTCGTAAACGTCGGAGATCCGGTTCTTCTGTCTTGATTCGCTTGACGCTGCTG”, the binding signal (log fluorescence intensity) was 8.83.
For “CGGAAGTGTCGTAAACGTCGGATATCCGGTTCTACTGTCTTGATTCGCTTGACGCTGCTG”, the binding signal (log fluorescence intensity) was 12.
Work on “GATGAATTTCTGCCCTTATTCGCACGTGCCATAACAGTCTTGATTCGCTTGACGCTGCTG” yielded a binding signal (log fluorescence intensity) of 8.29.
“GTGTATAGGATCCCATCCAACACACGTTTTAAAATGGTCTTGATTCGCTTGACGCTGCTG” was tested, and the binding signal (log fluorescence intensity) was 7.91.
“CTGGGACTTGACCCAACTCGGCCACGTGGGTCGTTTGTCTTGATTCGCTTGACGCTGCTG” showed a binding signal (log fluorescence intensity) of 8.27.
Sequence “TGTCGGGTAAGGGATTGTAGATCACGTGAATGAAAAGTCTTGATTCGCTTGACGCTGCTG” has a binding signal (log fluorescence intensity) of 8.22.
“TGTCGGGTAAGGGAGTGTAGATCACGTGAATGAAAAGTCTTGATTCGCTTGACGCTGCTG” showed a binding signal (log fluorescence intensity) of 8.3.
Sequence “CACAATTTTTACAGTAATGTAGCACGAGTAACTCCTGTCTTGATTCGCTTGACGCTGCTG” has a binding signal (log fluorescence intensity) of 8.27.
With “TAAAGGGAAGACGGTTGTGGTAGTTCCGGGTAGTAAGTCTTGATTCGCTTGACGCTGCTG” the binding signal (log fluorescence intensity) was 8.59.
For “GCTGCTGCGGTGGATACCCCACCGGATGTGACCCCGGTCTTGATTCGCTTGACGCTGCTG”, the binding signal (log fluorescence intensity) was 10.3.
With “GGAAAAAGGCCCAGGGTAACACCGGAAGTAGGCTTAGTCTTGATTCGCTTGACGCTGCTG” the binding signal (log fluorescence intensity) was 11.6.
Work on “GCTGCTGCGGTGCATACCCCACCGGATTTGACCCCGGTCTTGATTCGCTTGACGCTGCTG” yielded a binding signal (log fluorescence intensity) of 8.53.
“CAGCACAGGACTTCTTCCCTGAAGCAATTGATAACCGTCTTGATTCGCTTGACGCTGCTG” gave a binding signal (log fluorescence intensity) of 8.34.
For “GTGTATAGGATCCCACCCAACACACGTGTTAAAATGGTCTTGATTCGCTTGACGCTGCTG”, the binding signal (log fluorescence intensity) was 8.16.
“CGGAAGTGTCGTAAACGTCGGATATCCGGTTATTCTGTCTTGATTCGCTTGACGCTGCTG” gave a binding signal (log fluorescence intensity) of 12.1.
“GATTAATTTCTGCCCTTATTCGCACGTGCCATCACAGTCTTGATTCGCTTGACGCTGCTG” gave a binding signal (log fluorescence intensity) of 8.06.
Sequence “GTCTATAGGATCCCATCCAACACACGTGTTAAAATGGTCTTGATTCGCTTGACGCTGCTG” has a binding signal (log fluorescence intensity) of 8.42.
With “TAAAGAGAAGACGGTTGTGGTAGTTCCGGGTATTAAGTCTTGATTCGCTTGACGCTGCTG” the binding signal (log fluorescence intensity) was 8.26.
In the case of “GGGAAAAGGCCCAGGGTAACACCGGAAGTGGGCTTAGTCTTGATTCGCTTGACGCTGCTG”, the binding signal (log fluorescence intensity) is reported as 11.9.
For “CGGAAGTGTCGTAAACGACGGATATCCGGTTCTTCTGTCTTGATTCGCTTGACGCTGCTG”, the binding signal (log fluorescence intensity) was 12.4.
